The results in this text go back to the supplement of paper PMC3334620.

Over roughly 33,000 sequences, “E-score (-0.5 to 0.5)” has its median near -0.021; the highest 2% begin near 0.32. The list shows a part of the results.

This test deals with T1, Zap1 (UniProt P47043).
T1 sequence: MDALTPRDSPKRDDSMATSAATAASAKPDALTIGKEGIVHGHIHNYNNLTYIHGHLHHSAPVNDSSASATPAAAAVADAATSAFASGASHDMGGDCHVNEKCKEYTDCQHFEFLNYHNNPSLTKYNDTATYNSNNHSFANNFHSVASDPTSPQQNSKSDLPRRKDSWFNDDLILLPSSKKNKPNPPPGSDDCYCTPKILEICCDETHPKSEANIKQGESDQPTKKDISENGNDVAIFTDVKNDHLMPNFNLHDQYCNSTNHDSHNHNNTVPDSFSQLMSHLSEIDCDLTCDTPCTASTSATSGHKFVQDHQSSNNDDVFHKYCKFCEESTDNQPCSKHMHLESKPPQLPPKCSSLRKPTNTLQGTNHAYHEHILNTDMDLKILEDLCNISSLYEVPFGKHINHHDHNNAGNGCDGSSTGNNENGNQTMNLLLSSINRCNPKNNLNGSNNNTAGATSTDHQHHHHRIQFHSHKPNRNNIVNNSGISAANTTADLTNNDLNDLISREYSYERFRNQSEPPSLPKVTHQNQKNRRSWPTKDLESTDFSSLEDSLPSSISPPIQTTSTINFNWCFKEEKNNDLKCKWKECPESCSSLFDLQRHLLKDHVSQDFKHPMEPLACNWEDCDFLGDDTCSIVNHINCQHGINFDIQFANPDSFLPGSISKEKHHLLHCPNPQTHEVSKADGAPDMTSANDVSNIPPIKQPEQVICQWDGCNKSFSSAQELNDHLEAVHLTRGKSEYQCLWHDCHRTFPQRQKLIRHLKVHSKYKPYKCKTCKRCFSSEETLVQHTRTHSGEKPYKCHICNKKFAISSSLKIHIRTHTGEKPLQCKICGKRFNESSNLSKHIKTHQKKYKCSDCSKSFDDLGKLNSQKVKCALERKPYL
In words: PBM E-score (8-mer binding enrichment) (E-score (-0.5 to 0.5)); higher = stronger / more preferred TF binding; most listed sequences are background and not binding sites. Particulars: protein concentration: 200 nM; construct: GST-full length. An outline of the steps:
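Masliner-normalised scans of fluorescent anti-GST signal were the basis for scoring. That signal came from GST-tagged yeast transcription factors applied at about 100-200 nM to double-stranded universal all-10-mer Agilent arrays on fresh or once-stripped slides. Each ungapped eight-base word, pooled with its reverse complement, received an E-score from the Universal PBM Analysis Suite.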
ATCTCCCA: the “PBM E-score” value is -0.154.

In the case of ATCTTACC, the “PBM E-score” value was 0.0755.

For GCATAGGA, the “PBM E-score” value was -0.135.

As for GCTAAAAA, the “PBM E-score” value amounted to 0.00967.

Turning to AGAATCTG, the “PBM E-score” value was -0.0278.

As to CACGCATA, the “PBM E-score” value was -0.125.

For ACGTCTTA, the “PBM E-score” value was -0.0606.

Take CAGAGTAC: the “PBM E-score” value is 0.0483.

Take CGCTGCCG: the “PBM E-score” value is -0.184.

On to TAACTAAA, for which the “PBM E-score” value is 0.256.

For GACGGGCC, the “PBM E-score” value was -0.213.

In the case of CCGCGGCC, the “PBM E-score” value came out at 0.305.

On to CAACGCTG, for which the “PBM E-score” value was -0.19.

With TGCCTAAA, the “PBM E-score” value was -0.0644.

As for AGCGTTTA, the “PBM E-score” value is -0.229.

On to GCTTGGCC, for which the “PBM E-score” value is -0.188.

For CTAGAATC, the “PBM E-score” value is -0.137.

As to CATGTCAG, the “PBM E-score” value is -0.0265.

Consider CTTTAAAG, for which the “PBM E-score” value is 0.253.

In the case of CTGTCACC, the “PBM E-score” value turned out to be 0.0565.

For the sequence GATCAAAC, the “PBM E-score” value stood at 0.04.

As to AGTGAGCC, the “PBM E-score” value was -0.122.

Consider AGTTGACG, for which the “PBM E-score” value was -0.0633.

Take GAAGCCTA: the “PBM E-score” value was -0.219.

With TCAGCCCA, the “PBM E-score” value was -0.0436.

As to CATCACTC, the “PBM E-score” value was -0.0206.

For CGTTTCAC, the “PBM E-score” value was -0.115.

As to ACACGAAC, the “PBM E-score” value came to 0.013.

CACTAACA: the “PBM E-score” value was -0.0811.

Regarding ATCGTCAT, the “PBM E-score” value stood at 0.0769.

Consider CCTGCCTC, for which the “PBM E-score” value was -0.259.

For ACGACTGG, the “PBM E-score” value is -0.276.

Turning to CCCGTACG, the “PBM E-score” value is -0.137.

Turning to CCTTCAAC, the “PBM E-score” value is -0.012.

With CGGGGCAA, the “PBM E-score” value was -0.0604.

As to AATTTCCT, the “PBM E-score” value was 0.0432.

As to AGACTATA, the “PBM E-score” value came out at 0.126.

For CAGGATCC, the “PBM E-score” value turned out to be 0.0437.

Take CGCTTGCC: the “PBM E-score” value was -0.163.

CACGGACG: the “PBM E-score” value is -0.0254.

TTAGAGAA: the “PBM E-score” value was -0.0471.

Turning to AGTAAACC, the “PBM E-score” value came to 0.177.

As to CGACGTCA, the “PBM E-score” value was -0.221.

With CAATTAAA, the “PBM E-score” value came to 0.209.

As to GGGAGGAC, the “PBM E-score” value was -0.139.

Take ACCGAAGT: the “PBM E-score” value was found to be 0.0625.

Take CGGACACA: the “PBM E-score” value is 0.0391.

As to CCCTCAGA, the “PBM E-score” value was -0.0546.

Regarding ATGCCTCC, the “PBM E-score” value is -0.203.

Consider GAACCCCC, for which the “PBM E-score” value was -0.258.

On to AATAGTCC, for which the “PBM E-score” value was -0.0873.

With AAAGCTTA, the “PBM E-score” value is 0.0835.

GAGCATAC: the “PBM E-score” value is -0.127.

Regarding ACAACCAA, the “PBM E-score” value came out at 0.267.

For the sequence CGAATTCC, the “PBM E-score” value was -0.0897.

Regarding AGTCCCAC, the “PBM E-score” value is -0.0876.

Take ATGCAATA: the “PBM E-score” value was -0.11.

Regarding CGAAATAA, the “PBM E-score” value turned out to be 0.121.

GCAACAAC: the “PBM E-score” value was -0.0651.

In the case of TCACTTCA, the “PBM E-score” value is -0.189.

On to GGTGTAGA, for which the “PBM E-score” value worked out at 0.0373.

Regarding AGCACCGG, the “PBM E-score” value amounted to 0.00821.

Regarding ATCTCCAC, the “PBM E-score” value was -0.169.

As to AATAAAAT, the “PBM E-score” value was 0.148.

As to GCCTGGCA, the “PBM E-score” value is -0.333.

Regarding GATTCCCA, the “PBM E-score” value amounted to 0.0164.

With AAGCGTTC, the “PBM E-score” value is -0.09.

For AGCATCCT, the “PBM E-score” value was -0.27.

As to AGACATCT, the “PBM E-score” value was -0.00245.

With ACAAATAT, the “PBM E-score” value came to 0.0845.

Consider GGAGCGTA, for which the “PBM E-score” value was -0.24.

Consider AGACAACA, for which the “PBM E-score” value was -0.0972.

TCTCTCAA: the “PBM E-score” value amounted to 0.0545.

As for AAACTAAC, the “PBM E-score” value stood at 0.254.

As to AAGACACC, the “PBM E-score” value is 0.0129.

For ATTAGTCC, the “PBM E-score” value is -0.0033.

ACTCGTTA: the “PBM E-score” value is -0.14.

In the case of ACATATTA, the “PBM E-score” value was 0.2.

In the case of CTGGTAAG, the “PBM E-score” value came to 0.055.

Turning to AAGAGGAA, the “PBM E-score” value was -0.134.

Take AGGTTTGA: the “PBM E-score” value worked out at 0.187.

As for GGCGGTAC, the “PBM E-score” value came to 0.183.

GATGCGCA: the “PBM E-score” value is -0.104.

As for ATGTGTGG, the “PBM E-score” value is -0.174.

On to TCAGCGCA, for which the “PBM E-score” value is -0.194.

With CGCCAGAG, the “PBM E-score” value is -0.201.
